# Reference: the supplement of paper PMC11417369
# ± gives the standard deviation of the averaged measurements. Some of the results follow.
# System: PfAP2-LT AP2 domain (GST-tagged)
# Assay: gcPBM binding intensity (ln(normalized median fluorescence intensity)); higher = stronger DNA binding
# In short: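 DNA-binding domains from P. falciparum, fused to GST and produced in E. coli, were put on an Agilent 4 × 180k double-stranded probe array for 1 h in 1× PBS holding 1% milk, 0.2 mg/ml BSA, 0.5% salmon testes DNA and 0.03% Triton X-100. Probes were primer-extended, 36 bp long and drawn from intergenic genomic regions, with negative controls included. After Alexa488 anti-GST antibody detection and a 488 nm scan, binding intensity was set as the highest Masliner-normalised natural-log median intensity across replicate spots of either probe orientation.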
row,Sequence,gcPBM binding intensity (ln)
1,AAAATATTATCTAATTGTACTTATATAACTATATAT [XGTACX_site5699],8.69 ± 0.42
2,TTGAAATGCATGAACACACACAGCTATAAATGCATA [CACACA_site968],9.39 ± 0.4
3,AAATTTATGAACCTAGTGCAGAAATTAAAAAGATGA [GTGCAC_site9396],8.69 ± 0.46
4,ATACTAAGGAGAAAAGAAAAGTGAATTTATTCTATA [CACACA_negctrl_site1792],8.37 ± 0.63
5,TAATAAATAAATGACACACACACACCCAAAAAAAAA [CACACA_site2623],10.1 ± 0.41
6,TTATTAACCTAAATTAGTACATATAATATAAAAAAT [XGTACX_site8661],8.51 ± 0.4
7,AGCTATGTATTCTACACACACATACACCCATATATA [CACACA_site5827],9.57 ± 0.23
8,TGAACTTTAAACCCTGAACACACACTAATACACCCA [CACACA_site7970],9.44 ± 0.24
9,AATATGTCATATATGTGTACATATGCACAGATATTA [XGTACX_site951],8.86 ± 0.38
10,ATAAAAAGAAATCCAATACACACCTTCAAAATGGGT [CACACA_site1622],9.04 ± 0.37
11,ATATATATAATAAATACACACATTTATATAGATAAA [CACACA_site3254],8.9 ± 0.41
12,ATTCAATATTTATACACACACACTTTTAATAATTAA [CACACA_site7725],9.35 ± 0.16
13,AAACATTTATCAATGAATCTTTTAATAAGTGTAAAG [XGTACX_negctrl_site80],8.52 ± 0.46
14,TCATTCAGTTTTATCACACACAATCAAACATATATA [CACACA_site2742],8.99 ± 0.36
15,AATATAAGGATATATACACACATAAATACATACATA [CACACA_site7859],9.25 ± 0.45
16,TATTTTTTTAGATATACATGCAAAAACAGAAGAAAT [TGCATGCA_site283],8.55 ± 0.36
17,TCAACATTCATTGGAAGTACTCACTCCCATATAATA [XGTACX_site5211],8.54 ± 0.44
18,TTTTTATTTTTTATGTAATTTAAATAATTATTCAAA [CACACA_negctrl_site1549],8.17 ± 0.57
19,AGTAAACGATGATGTTGTACAAAAAGGATAATTTAA [XGTACX_site6698],9.13 ± 0.5

row,Sequence,gcPBM binding intensity (ln)
1,TACAAAAAAGAAGATATTCAAACAAAAACAAAAAAA [CACACA_negctrl_site1126],8.7 ± 0.45
2,CAATACTATTATTATAGTACGTATAAAATTATATAT [XGTACX_site4950],8.71 ± 0.49
3,TATCATAATAGACACAGTACATATATGTCTTAAATT [XGTACX_site8775],8.84 ± 0.38
4,TATATATATATGCTACGTACATATATATTATATATA [XGTACX_site7894],9.05 ± 0.15
5,GTATTCTTCTCTCCGTGTACATATATATGTATATAT [XGTACX_site803],9.21 ± 0.43
6,ACACATACATACATATGTACATATATACATATATAC [XGTACX_site5559],9.22 ± 0.3
7,TATATATAAACAAAATGTACATATTTGAGATACCCT [XGTACX_site2195],8.9 ± 0.32
8,TGTTTCTAAAAAAAAGGTACACATATATATAATATA [XGTACX_site3217],8.49 ± 0.41
9,GTAACCCACCAAAATGCACACATTAAAAAAAAAAAA [CACACA_site1046],9.02 ± 0.47
10,AAACCGTGGGAGCACACACACACACGCGCACATATA [CACACA_site6288],10 ± 0.3
11,ATAGTTTATACAAATAGTACGCACAAAAAAAAATAA [XGTACX_site6727],8.8 ± 0.52
12,TTTATCAAAATAAATGCACACAAATTGCACATATCT [CACACA_site8281],9.09 ± 0.38
13,AATACCGGAAAGCAAACACACATTTGAAAACCATAA [CACACA_site7761],9.32 ± 0.53
14,TATATATTATATATATGTACATATTTATTTTATTTT [XGTACX_site6989],8.75 ± 0.37
15,AAAAAATTTCAAATGACATAATGTAATTTCCCTTTT [GTGCAC_negctrl_site673],8.45 ± 0.45
16,AACGGGGGTAGTTTTATGCACACGTTTATTAATGCT [CACACA_site3173],9.25 ± 0.34
17,GATATGAATATAGGTTGTACTATATATAAAGTATGT [XGTACX_site1877],8.88 ± 0.43
18,AAAGTACAAGTATAATCACACGTGTCTATTATATAC [CACACA_site4507],9.37 ± 0.45
19,TATATGTTAATTTTTTTTTTTTTTTTTTTTTTTATA [CACACA_negctrl_site62],8.28 ± 0.66

row,Sequence,gcPBM binding intensity (ln)
1,ACATGAATTTATATGTGTACTAACTATATTCTTAAA [XGTACX_site5966],8.72 ± 0.38
2,ATGAATAAATAGGTCACACACAAATATTTATAAATA [CACACA_site7186],9.29 ± 0.39
3,TATCTGTATTTATTCACACATATAAAATATAATTAA [CACACA_site5560],8.31 ± 0.39
4,TATATACAATATAGGTGTACATTTTTTTATCTATTT [XGTACX_site8431],8.79 ± 0.42
5,TCTGGCATATAATATTGTACACATATATATATATAT [XGTACX_site8182],9.45 ± 0.21
6,ATATTTATGTAAAAAAGTACATACAATTATATATGT [XGTACX_site3750],8.78 ± 0.46
7,GATTACAAAAAAAATACACACAAAAAAAAAAAGGAA [CACACA_site2096],9.19 ± 0.59
8,ATAATGTTTTATAATACACACATTATATATATAAAT [CACACA_site6101],8.87 ± 0.32
9,CTTTCAATTTTTTTCTGTACCAATAAAAAATATAAA [XGTACX_site2120],8.11 ± 0.36
10,TTGAGCATAAAATTTGGAAACCTCAATCGGACAAAA [GTGCAC_negctrl_site84],8.68 ± 0.45
11,AACTGAGAAACCGAAGTGCAATATGTATATATACAT,9.1 ± 0.41
12,ATATGAAAGGTGTACACACGCACACCCAAAAAAATA [CACACA_site2911],9.35 ± 0.36
13,TAATTTAAAAATATAAATGTTTCACTTATATATTTT [TGCATGCA_negctrl_site399],8.39 ± 0.49
14,ATATATAATATATATGCATGTGACATTAATAATATA [TGCATGCA_site880],8.81 ± 0.4
15,CCACACTTAAAATACACACACACCAAAAAAAAAAAA [CACACA_site2709],9.76 ± 0.47
16,TTTTTTACGCATAACTTAATATGAGAATCCCTTTCT [GTGCAC_negctrl_site522],8.53 ± 0.58
17,ATTTATTGACTATTTACACACATATTTATTAGAATA [CACACA_site6863],8.97 ± 0.32
18,GGGAGGATAGTTCACAGTACCCAGTAACTCTACGGA [XGTACX_site2558],8.86 ± 0.41
